Measured values published in patent US12472166B2, “Inhibition of mycobacterial type VII secretion” (priority 2019, dated 2025).

How the values were obtained:
[1] = test system: M. marinum WT bacteria expressing rfp; settings: in vivo
Protocol: To assess anti-bacterial activity of the compounds in an animal model, zebra-fish embryos were infected by injection of WT M. marinum into the cardinal vein. The bacteria express rfp, which enables the quantification of infection in vivo by measuring red fluorescence. After injection of the bacteria into the fish, the infection was allowed to establish for 20 h. Then, the test compounds or DMSO control were added for three days before the infection was quantified by measuring fluorescence in each fish. […] FIG. 8: Zebra fish embryo infection experiments. Dechorionated zebra fish embryos were one day post fertilization infected by microinjection into the cardinal vein with 70 M. marinum WT bacteria expressing rfp. 20 h after infection, the compounds were added to the fish water at the indicated concentrations. After 4 days post infection the fish were imaged on a fluorescent microscope (A) and red pixels were quantified (B). As control served non-treated fish and non-infected fish. The fish water of all groups contained equal amounts of DMSO. Each data point represents a single fish. […] Statistical analysis was determined by ANOVA testing by comparing each group to the non-treated group of fish. p>0.05, not significant, not indicated. p<0.05=*, p<0.01=**, p<0.001=***.

[2] = 30 minutes at 37° C.
Protocol: To assess the metabolic stability of the drugs in the human body, selected compounds I-1, I-3, I-5, I-33, I-35, I-36 and I-37 were incubated with human liver microsomes for 30 minutes at 37° C., after which the remaining amount of compound was quantitatively determined by LC-MS (Table 3).
Each test compound (15 μM; from stock solutions of 5 mM in acetonitrile) was mixed with 0.5 mg/mL human liver microsome (Xenotech) in reaction buffer (100 μM NADPH, 10 μM glucose 6-phosphate, 0.5 U/mL glucose 6-phosphate dehydrogenase, 3.3 mM MgCl2 and 5 mM EDTA, 100 mM potassium phosphate buffer, pH 7.4. The resulting mixture was incubated at 37° C. After 30 minutes, the samples were cooled on ice, centrifuged and the supernatant was analyzed by LC-MS (Column: Luna 5 μm C18, 100 Å, 150×4.6 mm; MeCN/H2O, 0.1% formic acid; Table 3). Calculations and the experiment set-up are based on Kerns, E. H. et al., Drug-like Properties: Concepts, Structure Design and Methods; from ADME to Toxicity Optimization, Academic Press, 2008. The intrinsic clearance values are calculated based on the teachings in Obach, R. S., Drug Metabolism and Disposition 1999, 27(110, 1350-1359.

Row | SMILES | reduction of infection as compared to DMSO treated fish [1] [fold] | conversion by the human liver enzymes [2] | concentration from which significant reduction of infection starts [1] [µM]
1 | COc1ccc(-c2nsc(SCC(=O)NC3CCCC3)n2)cc1 [Compound I-12] | 50 | – | –
2 | CCCNC(=O)CSc1nc(-c2ccc(Cl)cc2)ns1 [Compound I-36] | – | relatively slowly converted | –
3 | O=C(CSc1nc(-c2ccccc2)ns1)NC1CCCC1 [Compound I-5] | – | relatively slowly converted | 1
4 | CCCNC(=O)CSc1nc(-c2ccccc2)ns1 [Compound I-1] | – | relatively slowly converted | 1
5 | O=C(CSc1nc(-c2ccc(Cl)cc2)ns1)NCCC(F)(F)F [Compound I-37] | – | relatively slowly converted | –
6 | O=C(COc1nc(-c2ccccc2)ns1)NC1CCCC1 [Compound I-33] | – | relatively slowly converted | –
7 | O=C(CSc1nc(-c2ccccc2)ns1)NCCC(F)(F)F [Compound I-35] | – | relatively slowly converted | –
8 | CCCNC(=O)CSc1nc(-c2ccc(OC)cc2)ns1 [Compound I-3] | – | exception | 1
